# Data reported in PubChem BioAssay AID743279 (National Center for Advancing Translational Sciences (NCATS), 2014).
# Among all 360,000 compounds or so, about 17,000 (4.7%) were called active. This list was built around the results that the source calls inconclusive (neither active nor inactive); the mix of calls is not that of the screen. Cut-off read from the data, not from the text of the source: active = activity change below about -50%; inconclusive = mostly about -30% to -49%; inactive = weaker than that.
# Test: qHTS for Inhibitors of Inflammasome Signaling: IL-1-beta AlphaLISA Primary Screen
# Conditions: THP-1 LPS/ATP IL-1B secretion, 16 h; at 57.5 µM, active compounds read low
# Source text: Inflammasomes are a set of intracellular multi-protein complexes that enable autocatalytic activation of inflammatory caspases and drive the innate immune response to counter harmful agents. […] A qHTS assay, based on AlphaLISA technology, was developed to screen the Molecular Libraries Small Molecule Repository (MLSMR) to look for novel inflammasome inhibitors. The assay detects IL-1B using AlphaLISA anti-IL-1B acceptor and donor beads. A decreased emission signal, indicating reduced IL-1B secretion, is the desired outcome for this assay. NIH Chemical Genomics Center [NCGC] NIH Molecular Libraries Probe Centers Network [MLPCN] MLPCN Grant: MH095513 Assay Provider: Shyam Biswal Ph.D., Johns Hopkins University Immunity. 2012 Jul 27;37(1):85-95. PMID: 22819042 [2] Curr Pharm Des. 2012;18(16):2320-8. PMID: 22390695
# Three microliters containing 3000 THP-1 cells were dispensed into the wells of solid, white, tissue culture treated Greiner 1,536-well plates. Library compounds and positive control, Glyburide, were pin-transferred (23 nL) by a Kalypsys pin-tool equipped with a 1,536-pin array, resulting in final compound concentration ranges of 2.5 nM to 57.5 uM. After 1 hr of cell culture incubation (37 °C, 5% CO2), 1 microL of 1 microg/mL lipopolysaccharide (250 ng/mL, final) and 5 mM ATP (1.25 mM, final) were added to stimulate the cells. After 16 hr of cell culture incubation with the compounds, 1.5 uL of anti-IL-1B acceptor beads (6 ug/mL, final) and biotinylated antibody (0.6 nM, final) were added to the plate, followed by a 1 hr incubation at ambient temperature. To detect the secreted IL-1B, 1.5 uL of AlphaLISA SA-Donor beads (24 ug/mL, final) were added, followed by 30 min of incubation in the dark at ambient temperature. The AlphaLISA signal was read by a PerkinElmer EnVision plate reader with an ultrasensitive luminescence detector and 1536 Plate HTS AlphaScreen aperture (excitation of 680nm and emission of 615nm).
# % is set by controls: 0 for no effect and ±100 for the full control effect.
row,SMILES,activity change
1,Cc1ccc2c(c1)cc(CN(Cc1ccco1)C(=O)COc1ccccc1)c1nnnn12,inconclusive: -32.2%
2,CCN(CC(=O)Nc1ccc(NC(C)=O)cc1)C(=O)c1ccc(N(C)S(=O)(=O)c2ccc(C)cc2)cc1,inactive: 9.08%
3,c1ccc(-c2nnc(CSc3ccc4c(c3)OCCO4)o2)cc1,inconclusive: -49.3%
4,Cc1ccc2oc(=O)c3cnn(CC(=O)N(CCN(C)C)Cc4ccco4)c3c2c1,inconclusive: -31.7%
5,Cc1cc(S(=O)(=O)N2CCCC(N(C)CCc3ccccn3)C2)c(C)cc1Cl (configuration not stated),inconclusive: -39.1%
6,Cc1cc(C)cc(C(=O)N2CCN(Cc3ccc4c(c3)OCO4)CC2)c1,inconclusive: -49.4%
7,COc1ccc(-c2csc(Nc3ccc(C)cn3)n2)cc1,active: -67.5%
8,CC(=O)c1c(CSc2ccccc2)oc2ccc(O)c(CN(C)C)c12,active: -85.1%
9,Cc1sc2ncnc(SCC(=O)Nc3cccc(S(N)(=O)=O)c3)c2c1C,inconclusive: -49.7%
10,CC1(Oc2ccccc2-c2ccn[nH]2)CCN(Cc2ccc(OC(F)(F)F)cc2)C1 (configuration not stated),inactive: -6.1%
11,COc1ccc(-n2cnnc2SCC(=O)c2ccc(S(=O)(=O)N3CCOCC3)cc2)cc1,inactive: -14.9%
12,COc1cccc(C(O)c2nc3ccccc3n2C(C)C)c1 (configuration not stated),inconclusive: -42.2%
13,CCc1nc2ccc(C(=O)NCCc3ccccn3)cn2c1N(C)Cc1ccc(N(C)C)cc1,inconclusive: -32.6%
14,CS(=O)(=O)c1ccc(Sc2nc3ccccc3[nH]2)c([N+](=O)[O-])c1,inconclusive: -30.8%
15,O=[N+]([O-])c1ccc(Cl)c2c1C1C=CCC1C(c1ccccn1)N2 (configuration not stated),inactive: 0%
16,C#Cc1ccc([C@@H]2C=C(C(=O)Nc3ccccc3)O[C@H](OCC)[C@H]2CCCO)cc1,inconclusive: -36.2%
17,COc1ccc(OCCNC(=O)/C=C/c2ccc([N+](=O)[O-])cc2)cc1,inactive: -6.63%
18,CCCCOC(=O)c1ccc(NC(c2ccc(C)cc2)P(=O)(OC)OC)cc1 (configuration not stated),inconclusive: -40.5%
19,CC(=O)Nc1ccc(OCC(=O)NCc2ccccc2)cc1,inactive: -18.9%

row,SMILES,activity change
1,CCCCN1C(=O)C(CC(=O)NCCCN(C)C)CC(C(=O)N(C)C)=C1C (configuration not stated),inactive: 6.02%
2,Cc1cc(N2CCN(c3ccccc3)CC2)n2cc(-c3ccccc3)nc2n1,active: -68.1%
3,CC1Sc2ccc(S(=O)(=O)CCC(=O)Nc3ccc(C(C)C)cc3)cc2NC1=O (configuration not stated),inactive: 94.4%
4,CCOC(=O)C1=C(C)N(CCCC(=O)NCc2ccc3c(c2)OCO3)C(=O)NC1c1ccc(Br)cc1 (configuration not stated),inconclusive: -42.4%
5,CCc1ccccc1NC(=O)c1ccc([N+](=O)[O-])s1,inconclusive: -31.4%
6,COc1ccc(-c2cc(C(=O)Nc3nc4ccccc4s3)c3ccccc3n2)cc1OC,inactive: -14.5%
7,Nc1c(C(=O)Nc2ccc3c(c2)OCCO3)nnn1Cc1ccccc1Cl,inconclusive: -37.9%
8,CCOc1ccc(-c2nc(-c3ccc(OC)cc3)no2)cc1OCC,inconclusive: -32.2%
9,Cc1ccc(C)c(-c2[nH]ncc2CN2CCCC(CO)(Cc3ccccc3C)C2)c1 (configuration not stated),active: -79.8%
10,CC1(C(=O)Nc2nnc(SCc3ccccc3)s2)Cc2ccccc2C(=O)O1 (configuration not stated),inactive: 14.3%
11,O=C(NNC(=O)C(c1ccccc1)c1ccccc1)c1ccccn1,active: -68.3%
12,C=CCn1c(Cc2cccs2)nnc1SCC(=O)c1cccc(Br)c1,inconclusive: -33.5%
13,COc1ccccc1CNC(=S)NC1CCCCC1,inconclusive: -43%
14,CCOC(=O)C1=C(COC(=O)CNS(=O)(=O)c2ccc(C)cc2)NC(=O)NC1C (configuration not stated),inactive
15,CC(OC(=O)c1cnccn1)C(=O)Nc1nc(-c2cccc([N+](=O)[O-])c2)cs1 (configuration not stated),inactive: -20.3%
16,CC(NC(=O)C1CCC(=O)N1Cc1ccc(F)cc1)c1ccc2c(c1)OCCO2 (configuration not stated),inactive: -3.87%
17,CC1(C)Cc2c(c(N3CCCC3)nc3sc(C(=O)Nc4ccccc4)c(N)c23)CO1,inconclusive: -45.5%
18,COc1cc(CNCc2ccccc2)c(Br)cc1OC1CCCC1,active: -54.9%
19,O=C(CC(Sc1ccccc1)c1cccs1)c1ccco1 (configuration not stated),active: -69.8%

row,SMILES,activity change
1,COc1ccccc1NC(=O)c1cnc(SCC(=O)NCC2CCCO2)n(C)c1=O (configuration not stated),active: -97%
2,Fc1cc(Cl)cc2ccc(-c3ccccc3)nc12,inactive: 0.469%
3,CCc1sc(C(=O)Nc2nccs2)cc1C,inconclusive: -48.1%
4,CN1CCC(N(C)C(=O)c2cc(-c3ccc(F)cc3)nc3ccccc23)CC1,active: -67.8%
5,Cc1onc(-c2ccccc2Cl)c1C(=O)Nc1cccc2cccnc12,inactive: -19.9%
6,COc1cc(C(=O)Nc2ccc(Nc3ccccc3)cc2)cc(OC)c1OC,active: -56.1%
7,NC(N)=Nc1nc2cc([N+](=O)[O-])ccc2o1,inconclusive: -31.3%
8,FC(F)Oc1ccc(-c2c[n+]3c(n2-c2ccccc2)CCCCC3)cc1,inconclusive: -36.6%
9,O=[N+]([O-])c1ccccc1S(=O)(=O)Nc1ncccn1,inconclusive: -34.5%
10,CNC(=O)c1c(NC(=O)c2cccc(N3C(=O)CCC3=O)c2)sc2c1CCC2,inconclusive: -39.3%
11,CC1=CC(c2ccc(Cl)cc2)n2nc(NC(=O)c3ccccc3)nc2N1 (configuration not stated),inconclusive: -34%
12,S=C(NNc1cccc(Cl)c1)NC1CCCCC1,active: -108%
13,CCOC(=O)c1c(NC(=O)Cc2cccs2)sc2c1CCCC2,inactive: -9.97%
14,Cc1ccc(S(=O)(=O)Nc2cc(-c3ccccc3)nn2C)cc1,inconclusive: -48%
15,COc1cc(-c2nc3c(c(C)nn3-c3ccccc3)c3cc(OC)c(OC)cc23)ccc1O,inconclusive: -46.8%
16,C(=Cc1c[nH]c2ccccc12)c1nccc2ccccc12,active: -82%
17,COC(=O)c1sc(=S)n(-c2cc(F)ccc2F)c1N,inactive: -7.16%
18,COc1ccc(C(=O)CN2C(=O)C(C)(C)Oc3ccc(C(=O)N4CCCCCC4)cc32)cc1,inconclusive: -33.5%
19,CCn1c(=O)[nH]c2cc(Cl)c(Cl)cc21,inactive: 15%
